Source: US20260184814A1 (priority 2022, published 2026)

Details: at 4° C., following reconstitution in sterile water for injection

## CCOC(=O)C1=C[C@@H](OC(CC)CC)[C@H](NC(C)=O)[C@@H](N)C1 [Oseltamivir, oseltamivir]
  Stability: Up to 7 days (Study Days −1-5) at 4 °C
